Screen size: about 350,000 compounds; about 31,000 (8.9%) were called active. Inconclusive results, whose numbers are uncertain, are shown with a selection of clear calls. Calls come from the whole dose curve; as a rule, active = well fitted inhibition curve with a large enough effect; inconclusive = small, poorly fitted or top-dose-only effect; inactive = no such curve, though single readings can be large or run the other way. Potencies of inconclusive entries are doubtful fits and often do not repeat.
target: Histone-lysine N-methyltransferase EHMT2 (Homo sapiens) (UniProt Q96KQ7); assay: qHTS Assay for Inhibitors of Histone Lysine Methyltransferase G9a; conditions: G9a H3K9 monomethylation, AlphaScreen, 2 h; activity, negative = inhibition: at 59 µM (top of the series) unless noted; note: nearly all actives have a fitted effect of over 75% in size
UniProt Q96KQ7, sequence (Q96KQ7 whole entry, looked up): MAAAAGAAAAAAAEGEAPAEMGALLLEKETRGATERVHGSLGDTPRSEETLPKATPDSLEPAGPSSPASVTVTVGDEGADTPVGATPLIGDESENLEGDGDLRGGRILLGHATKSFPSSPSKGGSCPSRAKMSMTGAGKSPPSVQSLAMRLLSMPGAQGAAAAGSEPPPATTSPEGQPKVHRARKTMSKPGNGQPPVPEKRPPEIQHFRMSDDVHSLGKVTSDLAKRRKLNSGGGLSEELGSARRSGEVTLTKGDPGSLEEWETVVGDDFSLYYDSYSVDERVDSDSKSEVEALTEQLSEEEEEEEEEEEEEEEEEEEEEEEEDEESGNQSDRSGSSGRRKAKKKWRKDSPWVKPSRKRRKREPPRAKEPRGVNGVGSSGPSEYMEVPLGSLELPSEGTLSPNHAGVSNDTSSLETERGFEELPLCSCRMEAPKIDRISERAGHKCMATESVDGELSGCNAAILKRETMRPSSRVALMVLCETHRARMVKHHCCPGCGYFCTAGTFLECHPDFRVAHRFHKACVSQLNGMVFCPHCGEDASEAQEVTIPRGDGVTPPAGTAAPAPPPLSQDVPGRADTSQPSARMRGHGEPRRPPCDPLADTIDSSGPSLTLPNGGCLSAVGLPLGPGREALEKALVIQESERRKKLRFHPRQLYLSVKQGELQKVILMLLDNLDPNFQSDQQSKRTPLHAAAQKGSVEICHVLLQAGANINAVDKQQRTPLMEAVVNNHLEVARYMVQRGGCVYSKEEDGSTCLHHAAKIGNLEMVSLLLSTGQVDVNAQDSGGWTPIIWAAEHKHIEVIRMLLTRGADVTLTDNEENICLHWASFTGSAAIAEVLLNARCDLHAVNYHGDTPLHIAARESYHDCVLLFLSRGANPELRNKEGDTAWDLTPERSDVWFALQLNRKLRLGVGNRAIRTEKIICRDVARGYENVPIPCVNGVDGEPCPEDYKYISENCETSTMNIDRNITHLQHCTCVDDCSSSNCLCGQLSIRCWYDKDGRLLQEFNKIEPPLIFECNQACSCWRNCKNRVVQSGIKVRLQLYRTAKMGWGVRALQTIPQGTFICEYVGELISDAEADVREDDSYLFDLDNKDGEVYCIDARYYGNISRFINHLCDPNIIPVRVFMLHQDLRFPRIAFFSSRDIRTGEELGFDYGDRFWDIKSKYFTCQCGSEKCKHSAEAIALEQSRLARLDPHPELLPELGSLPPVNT
Procedure, shortened: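 Quantitative HTS format: methyltransferase activity on a biotin-tagged H3K9 peptide is measured by AlphaScreen, using a rabbit anti-monomethyl-H3K9 antibody with streptavidin donor and anti-IgG acceptor beads. Final levels are 20 nM enzyme, 500 nM peptide, 20 uM SAM; 2 h RT.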
% is set by controls: 0 for no effect and ±100 for the full control effect; potency is the fitted concentration of half-maximal effect; tags give direction and shape of the fitted curve.

SMILES	Potency	activity, negative = inhibition
CCOC(=O)c1c(NC(=O)C2C3CCC(O3)C2C(=O)O)sc2c1CCC(CC)C2 (stereo unspecified)	inconclusive: 35.5 µM [inhibitor, partial curve]	
CCN(CC)CCn1c(NCc2cccc(OC)c2)nc2ccccc21	active: 50.1 µM	
Cc1cc(C)cc(NC(=O)CCCc2nc(-c3ccco3)no2)c1	inactive	
O=C(NC(=S)Nc1ncc(Br)cc1Br)c1ccccc1	inconclusive: 89.1 µM [inhibitor, single point]	
CC1CCCCC12NC(=O)N(CC(=O)Nc1cccc(S(=O)(=O)N3CCCCC3)c1)C2=O (stereo unspecified)	inconclusive: 31.6 µM [inhibitor, single point]	
COc1ccc(OC)c(S(=O)(=O)N2CCC(C(=O)NCc3ccc4c(c3)OCO4)CC2)c1	inactive	
O=C(O)C(=O)/C(=C\c1cccc(Cl)c1)c1ccc2ccccc2n1	active: 22.4 µM	
Cn1c(CC(=O)NNC(=O)c2ccccc2F)nc2ccccc21	inconclusive: 1.12 µM [inhibitor, full curve, poor fit]	
O=C(C1CCN(S(=O)(=O)c2ccccc2)CC1)N1CCN(c2ccccc2F)CC1	inactive	
COc1ccc(NC(=O)CN2CCN(S(=O)(=O)c3ccc(Cl)cc3)CC2)cc1		inconclusive: -91.1% [inhibitor]
O=C(Nc1ccc(F)c(Cl)c1)N1CCN(C(=O)c2nsc3ccccc23)CC1	inactive	
Cc1cccc(C)c1NC(=O)Cn1nnc(-c2ccc(N3CCOCC3)cc2)n1		inactive: 8.61% [at 12.7 µM]
COc1ccc(S(=O)(=O)n2oc(=O)cc2-c2ccccc2)cc1OC	inconclusive: 3.55 µM [inhibitor, full curve, poor fit]	
C=CCOc1ccc(/C=C/C(=O)Nc2ccc(C(=O)NC)cc2)cc1	inconclusive: 44.7 µM [inhibitor, partial curve, poor fit]	
C#CCNc1c2c(nc3nnnn13)CCCC2	inactive	
CCOc1ccc(CCNC(=O)CCS(=O)(=O)c2ccc(OC)cc2)cc1OCC	inconclusive: 89.1 µM [inhibitor, single point]	
COc1cccc(NC(=O)[C@H](Cc2ccccc2)NC(=O)[C@@H]2Cc3ccccc3CN2)c1	inconclusive: 56.2 µM [inhibitor, partial curve, poor fit]	
N#Cc1c(NC(=S)NC(=O)c2ccccc2)sc2c1CCCC2	active: 8.91 µM	
CCOP(=O)(OCC)c1nc(-c2ccc(F)cc2)oc1NCc1ccccc1		inactive: 28.9% [at 12.7 µM]
CCOc1nc2ccccc2nc1NS(=O)(=O)c1ccccc1		inconclusive: -56.6% [inhibitor]
COc1ccc(Cn2c(C3CC3)nc3ccc(NC(C)=O)cc3c2=O)cc1	inactive	
O=C(Cc1ccccc1)Nc1ccc(S(=O)(=O)N2CCOCC2)cc1	inconclusive: 6.31 µM [inhibitor, partial curve, poor fit]	
CCn1c(SCc2nc3ccccc3s2)nnc1-c1ccccc1	inconclusive: 89.1 µM [inhibitor, single point]	

SMILES	Potency	activity, negative = inhibition
COc1ccc(S(=O)(=O)NNc2nc(C)cc(C)n2)cc1Br	active: 22.4 µM	
COc1cccc(C(=O)N(Cc2ccco2)c2c(N)n(Cc3ccccc3)c(=O)[nH]c2=O)c1	inconclusive: 6.31 µM [inhibitor, single point]	
Cc1ccc(OCC(O)CNC2CCCC2)cc1C (stereo unspecified)	inconclusive: 56.2 µM [inhibitor, partial curve, poor fit]	
CC(=O)c1c(C)n(CCO)c2ccc(O)cc12	inconclusive: 1.12 µM [inhibitor, full curve, poor fit]	
CCOc1ccc(CC(=O)N/N=C/c2sccc2C)cc1	inactive	
CCOc1ccc(S(=O)(=O)NCCC(=O)N(C)CC(=O)Nc2ccc(N3CCOCC3)cc2)cc1	active: 35.5 µM	
CCOC(=O)c1ccc(-n2c(CN3CCN(CC)CC3)nc3ccc([N+](=O)[O-])cc3c2=O)cc1	active: 56.2 µM	
CCOC(=O)c1ccc(NC(=O)C2CCN(C(=O)c3ccc(OC)c(OC)c3)CC2)cc1	inactive	
CCn1c(C(=O)N2CCC(C(=O)N3CCN(c4cccc(C)c4C)CC3)CC2)cc2sccc21	inconclusive: 10 µM [inhibitor, partial curve]	
O=C(NN1CCOCC1)c1ccccc1	inactive	
CCNc1nc(-c2ccc(OC(F)F)cc2)c(C)s1	active: 39.8 µM	
C=CCO/N=C(\C)c1c(O)c(C)c(-c2ccccc2)n(-c2ccccc2)c1=O	inconclusive: 39.8 µM [inhibitor, single point]	
CC1=CC(c2ccc(Cl)cc2)n2nc(N3C(=O)CCC3=O)nc2N1 (stereo unspecified)	inconclusive: 31.6 µM [inhibitor, single point]	
Cn1nc(C(=O)N2CCN(c3ccc(Cl)cc3)CC2)c2c1-c1ccccc1SC2	inconclusive: 39.8 µM [inhibitor, partial curve, poor fit]	
O=C(Nc1cccc(Cl)c1)Nc1ccccc1C(=O)O	inconclusive: 70.8 µM [inhibitor, partial curve, poor fit]	
N#Cc1c(NC(=O)c2ccncc2)sc2c1CCC2	active: 11.2 µM	
CCOC(=O)Cc1csc(NC(=O)CN(C)S(=O)(=O)c2ccc3c(c2)CCC(=O)N3)n1	inconclusive: 56.2 µM [inhibitor, partial curve, poor fit]	
COc1ccc(NC(=O)COC(=O)c2ccc(S(=O)(=O)N3CCCC3)cc2)cc1OC	inactive	
CC1(C)Cc2c(C#N)c(SCC(=O)c3ccccc3)nc(N3CCOCC3)c2CS1		inactive: -37.4% [at 12.7 µM]
COc1ccccc1NC(=S)NNC(=O)c1c(Cl)c(C)nn1C	active: 25.1 µM	
COc1cc([C@H](Cc2ccccc2)NC(C)=O)oc(=O)c1		inconclusive: -96.1% [inhibitor]
OC(c1cccs1)c1nccc2ccccc12 (stereo unspecified)	inconclusive: 2.82 µM [inhibitor, partial curve, poor fit]	
O=[N+]([O-])c1ccccc1S(=O)(=O)N1CCN(Cc2ccc3c(c2)OCO3)CC1	active: 10 µM	
